# Measured values from the BET-seq Pho4 binding data (Le et al. 2018).
# The list shows a part of the results. Values were computed here from the reads of four pooled replicates and scatter widely.
# Molecular target: T1, Pho4 (S. cerevisiae) (UniProt P07270)
# T1 sequence: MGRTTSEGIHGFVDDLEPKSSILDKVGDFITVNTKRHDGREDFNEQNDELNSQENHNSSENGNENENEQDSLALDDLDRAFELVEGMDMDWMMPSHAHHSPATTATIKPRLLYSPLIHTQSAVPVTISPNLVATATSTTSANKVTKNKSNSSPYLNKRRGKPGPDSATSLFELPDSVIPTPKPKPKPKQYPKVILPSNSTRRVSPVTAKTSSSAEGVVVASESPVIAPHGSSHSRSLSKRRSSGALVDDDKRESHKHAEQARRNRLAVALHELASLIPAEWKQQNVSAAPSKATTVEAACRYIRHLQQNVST
# Experiment: relative binding free energy (BET-seq); higher = weaker binding
# Conditions: reference: library average
row,Sequence,relative binding free energy [kcal/mol]
1,GTGGTCACGTGAAGGA,0.33
2,AATGGCACGTGAGTCT,0.14
3,CTTTTCACGTGGTACT,0.29
4,TAATTCACGTGATATT,0.38
5,GTGATCACGTGATTAA,0.4
6,TTGGGCACGTGGTTGC,-0.23
7,GAGATCACGTGGGTTT,0.07
8,GTTTTCACGTGGGCGA,0.14
9,TTGATCACGTGTAAGG,0.16
10,ATGTTCACGTGTAGTG,0.15
11,ATGATCACGTGAATGG,0.32
12,TCGTGCACGTGCATTG,-0.03
13,CACGGCACGTGGGGAG,-0.13
14,TGTGGCACGTGCGTGC,-0.19
15,GTGCTCACGTGATTTG,0.2
16,ACTTACACGTGGTTTG,0.04
17,TAGAGCACGTGCGTGT,-0.13
18,ATACTCACGTGGGAGG,0.16
19,GTTTTCACGTGTTGAC,0.32
20,TACTGCACGTGGTAGG,-0.19
21,AGTGCCACGTGAGGTG,0.17
22,GCATGCACGTGTGGTT,-0.07
23,GGTTTCACGTGGTCTC,0.24
24,AAATTCACGTGGGTAA,0.2
25,TCTTTCACGTGGTCAG,0.23

row,Sequence,relative binding free energy [kcal/mol]
1,GGGTTCACGTGTTAGG,0.41
2,GGTGCCACGTGAGTTG,0.26
3,GGTTGCACGTGCAAAG,0.04
4,TTGAGCACGTGGTTTT,-0.1
5,GTAGGCACGTGGGAAT,-0.22
6,GTTCACACGTGGTAGT,0.1
7,GTAGGCACGTGGGAGA,-0.1
8,GTGTTCACGTGTGTCA,0.17
9,CTTTTCACGTGCGGGG,0.35
10,GAGGACACGTGGGACG,0.03
11,CTTGTCACGTGGTCAT,-0.05
12,AAGGGCACGTGTCGGT,-0.06
13,TCAGTCACGTGATGGA,0.3
14,TTGGACACGTGATTAG,0.18
15,GGTCGCACGTGGTGTT,-0.11
16,TTGGACACGTGAAAGT,0.28
17,TGTCACACGTGATTTG,0.17
18,ATTCACACGTGTGGGA,0.14
19,AGCTTCACGTGTATGG,0.17
20,TGCTGCACGTGAGTCG,0.24
21,CTGTGCACGTGTTTGG,-0.06
22,GGGTGCACGTGTTGAG,0.06
23,ATTTTCACGTGGATAT,0.29
24,TAGTTCACGTGCATAT,0.2
25,ATGCGCACGTGGGTTG,-0.28

row,Sequence,relative binding free energy [kcal/mol]
1,AGTCACACGTGGTTGT,-0.04
2,CGGAGCACGTGGAGTG,-0.08
3,GTTGTCACGTGTTGAC,0.13
4,GTTTACACGTGTGGGG,0.29
5,TAGTGCACGTGTTGTT,-0.03
6,GAGGACACGTGGGTGA,-0.06
7,AAAGGCACGTGTGATT,0.02
8,GTATCCACGTGTGATT,0.19
9,GGGCACACGTGGGTGC,-0.16
10,TATGACACGTGTGAGG,0.05
11,AGGGTCACGTGGGGCT,0.09
12,TTAGGCACGTGTATCG,0.02
13,GAGTCCACGTGGGGTG,0.07
14,GGGTGCACGTGAGAAA,0.21
15,TGGTCCACGTGCGGCG,-0.03
16,ATTACCACGTGGGTGG,-0.29
17,TTTAGCACGTGATGGT,0.13
18,GTACGCACGTGGGGTG,-0.26
19,GAGCTCACGTGATGGG,0.48
20,CTTTCCACGTGATGGG,0.24
21,AAGTACACGTGAAGTT,0.31
22,CGGTACACGTGTATTT,0.06
23,AGTCGCACGTGAGTTG,0.27
24,GGAAGCACGTGTGGTG,-0.11
25,TTTACCACGTGTGTGA,0.08

row,Sequence,relative binding free energy [kcal/mol]
1,CTGGCCACGTGGGTTT,-0.15
2,TTCGTCACGTGTTGTG,0.08
3,ATAGGCACGTGGTTAA,-0.13
4,TTGTTCACGTGAGGAA,0.57
5,TGTTTCACGTGTGGCC,0.27
6,AGGTGCACGTGGTGGA,-0.1
7,GGTATCACGTGGGTGA,0.08
8,CTAATCACGTGGGTGC,0.09
9,GGGTTCACGTGGTTTT,0.36
10,TTATGCACGTGGGGTC,-0.15
11,TTGAGCACGTGTTTTA,-0.13
12,TTTTTCACGTGGCGCT,0.33
13,GGATACACGTGTTGAT,0.19
14,TATAGCACGTGGGTGG,-0.24
15,GGTTCCACGTGGGGAG,0.03
16,AGGAGCACGTGTTAGG,-0.14
17,CTGGTCACGTGGGCGA,-0.06
18,TATTGCACGTGCATTT,-0.05
19,GTGATCACGTGTGAGT,0.2
20,AGGGTCACGTGGTTGG,0.03
21,TATAACACGTGTTTGG,0.02
22,TGTAGCACGTGTTGAA,0.03
23,TTGGCCACGTGTAAGG,0.13
24,GTAATCACGTGTTTAG,0.15
25,TCGTGCACGTGGGGCG,-0.16

row,Sequence,relative binding free energy [kcal/mol]
1,AGTTTCACGTGTTGAC,0.22
2,TCGGACACGTGTTGTG,0.06
3,GATGTCACGTGGTAGG,0.14
4,GAGGACACGTGATTGG,0.34
5,CGGCTCACGTGGGGAG,0.1
6,GAGTGCACGTGTTCGT,-0.16
7,TATGACACGTGGGGAA,-0.17
8,GTTCACACGTGGGAGG,0.09
9,CTTTTCACGTGGGTAT,0.15
10,TGGGCCACGTGGTATG,-0.15
11,AGGACCACGTGGGGGT,-0.3
12,GCTTGCACGTGGGAGG,-0.1
13,TAGTGCACGTGATTCG,0.04
14,TGTGACACGTGGCGGA,0.08
15,TTTGTCACGTGATCGG,0.24
16,GTGGTCACGTGCGTTG,-0.01
17,ACATGCACGTGAGGTT,0.03
18,CATAACACGTGGGGGA,-0.12
19,GGTTGCACGTGTAGGT,0.12
20,TTAGTCACGTGTAGTC,0.24
21,GGAAGCACGTGTCTGG,0.02
22,ACGGTCACGTGGTATT,0.01
23,TAGAGCACGTGTTAAG,-0.17
24,ATTTGCACGTGCGTCT,-0.07
25,TAAGGCACGTGCGGGA,-0.28

row,Sequence,relative binding free energy [kcal/mol]
1,TTTAGCACGTGGAAGT,0.04
2,GTGCGCACGTGGAGCT,0.06
3,GCCGTCACGTGTTAGG,0.3
4,AGGGTCACGTGAATGT,0.32
5,GTGGACACGTGTGGTC,0.07
6,TATTCCACGTGGTTGG,0.2
7,ATTGGCACGTGTCGGT,-0.12
8,GTAGTCACGTGATATA,0.29
9,TGAGGCACGTGGTAAT,-0.15
10,TGCAGCACGTGGGAGT,-0.14
11,TAGTGCACGTGGGGGG,-0.16
12,TCTGTCACGTGTTGTG,0.06
13,GTACTCACGTGGTGTC,0.2
14,ATGAGCACGTGGTGGG,-0.15
15,GGGGCCACGTGGGTGA,-0.13
16,TGGGTCACGTGCGAAG,0.16
17,TTGAACACGTGTGATG,0.07
18,AAGTTCACGTGGTGGT,0.36
19,TTTTTCACGTGAGGGA,0.4
20,GTTTGCACGTGGTATT,0.04
21,AGGTTCACGTGTTAAT,0.24
